± gives the uncertainty stated by the source. In all, about 9,900 compounds were measured (“viability index relative to DMSO control”: median about 1, lowest 2% from about 0.85 on). Some of the results follow.

The test system of the assay is Plasmodium falciparum NF54 stage V gametocytes. The experiment in a line: viability index relative to DMSO control (fraction); higher = less gametocyte killing. The conditions noted are these: 2.5 µM, library set: Broad Institute DOS, incubation time: 72 h. In outline: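 Stage V gametocytes of P. falciparum NF54 were held in serum-free screening medium at 0.75% gametocytemia and 1.25% hematocrit, 10 µl per well of a 1,536-well plate, and exposed to compound at 2.5 µM for 72 hr at 37°C under low oxygen. A 3 µl mix of 2.5 µM MitoTracker Red CMXRos with 0.13% saponin was then added for one to two hours, after which one field per well was imaged and red particles of 20–70 µm2 were counted. The viability index equals this count divided by the plate mean from wells given solvent alone.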
In turn, `COc1ccc(S(=O)(=O)Nc2cccc3c2O[C@@H](CN(C)CC2CCCCC2)[C@H](C)CN([C@@H](C)CO)C3=O)cc1` yielded a viability index of 0.926 ± 0.077. In the case of `COc1ccc(CNC(=O)C[C@@H]2CC[C@@H](NC(=O)CN(C)C)[C@H](CO)O2)cc1`, the viability index is 0.968 ± 0.016. The compound `COc1ccccc1CNC(=O)C[C@H]1C[C@@H]2c3cc(NC(=O)C4CCC4)ccc3O[C@@H]2[C@@H](CO)O1` showed a viability index of 1.13 ± 0.054.

In turn, `COc1ccc(S(=O)(=O)N(C)C[C@H]2Oc3ccc(N(C)C)cc3CC(=O)N([C@@H](C)CO)C[C@H]2C)cc1` gave a viability index of 1 ± 0.084. In the case of `COCC(=O)N1CC2(C1)[C@@H](c1ccc(-c3cccc(F)c3)cc1)[C@@H](CO)N2C(=O)C1CC1`, the viability index amounted to 1.06 ± 0.032.

As for `COc1ccc(S(=O)(=O)N(C)C[C@H]2Oc3ccc(N(C)C)cc3CC(=O)N([C@H](C)CO)C[C@@H]2C)cc1`, the viability index worked out at 0.945 ± 0.13. The value for `CC[C@@H]1C/C=C\C[C@@H](C(C)C)NC(=O)CCC(=O)N1` was 1.04 ± 0.07. As to `C/C=C/c1ccc([C@@H]2[C@@H](CO)N(C(C)=O)[C@@H]2CN(CC)C(=O)CN(C)C)cc1`, the viability index was found to be 1.08 ± 0.027.

In the case of `O=C(c1cccc(F)c1)N1CC[C@@H]2[C@H](CO)Nc3ccc(C#CC4CC4)cc3[C@@H]21`, the viability index amounted to 1.04 ± 0.033. Compound `O=C(NCC[C@H]1CC[C@@H](NC(=O)c2ccccc2F)[C@@H](CO)O1)c1cnccn1` registered a viability index of 0.909 ± 0.13.

Regarding `C[C@@H]1CCCCO[C@H](CN(C)S(=O)(=O)c2cn(C)cn2)[C@@H](C)CN([C@@H](C)CO)C(=O)c2cc(NC(=O)Nc3cccc4ccccc34)ccc2O1`, the viability index is 1.12 ± 0.12. `COc1ccc2c3c([nH]c2c1)[C@@H](CO)N(CC1CC1)C[C@]31CN(C1)C(=O)c1ccc(F)cc1` yielded a viability index of 1.02 ± 0.097. With `COCC(=O)N1[C@H](CO)[C@H](c2ccc(-c3ccccc3OC)cc2)C12CN(C(C)=O)C2`, the viability index was 1.07 ± 0.077. In the case of `C[C@H](CO)N1C[C@H](C)[C@@H](CN(C)C(=O)Nc2ccc(F)cc2)Oc2ccc(NC(=O)c3ccncc3)cc2CC1=O`, the viability index worked out at 0.909 ± 0.074.

The compound `CN(C)C(=O)c1ccc(-c2ccc([C@@H]3[C@H]4CNC[C@@H]3N4Cc3ccccn3)cc2)cc1` registered a viability index of 1.02 ± 0.016. `O=C(C1CCOCC1)N1CC[C@@H]2[C@H]1c1cc(-c3cccc(F)c3)ccc1N[C@@H]2CO` gave a viability index of 1.1 ± 0.062. Turning to `CCC(=O)N1[C@@H]2c3cccc(=O)n3C[C@H]1[C@H](CO)[C@H]2C(=O)NC1Cc2ccccc2C1`, the viability index came to 1.01 ± 0.015. `Cn1cnc(S(=O)(=O)N2C[C@@H]3N[C@H](C2)[C@H]3c2ccc(-c3ccccc3F)cc2)c1` showed a viability index of 1.06 ± 0.046. The compound `COc1ccc(NC(=O)N[C@H]2CC[C@@H](CCNC(=O)CN3CCOCC3)O[C@@H]2CO)cc1` yielded a viability index of 0.999 ± 0.012. In the case of `O=C(C[C@H]1CC[C@@H]2NC[C@H](O)COC[C@H]2O1)N1CCc2ccccc2C1`, the viability index came to 1.03 ± 0.059. In the case of `CC(C)NC(=O)N1CC[C@@H]2[C@H]1c1cc(-c3ccc(F)cc3)ccc1N(C)[C@H]2CO`, the viability index came to 1.0672 ± 8.2e-05. The compound `CCCN1C[C@H](C)[C@@H](OC)CN(C)C(=O)c2cc(NC(=O)C3CCC3)ccc2OC[C@@H]1C` showed a viability index of 1.06 ± 0.035. `CO[C@H]1CN(C)C(=O)c2ccc(NS(=O)(=O)CC(F)(F)F)cc2OC[C@H](C)N(Cc2nccs2)C[C@H]1C` showed a viability index of 1.108 ± 0.0023. Regarding `OC[C@@H]1[C@@H](c2ccccc2)C2(CN(Cc3ccccc3F)C2)N1Cc1ccccc1F`, the viability index was determined as 1.09 ± 0.039.

The compound `C[C@@H]1CN([C@@H](C)CO)C(=O)CCCn2nncc2CO[C@@H]1CN(C)CC1CCCCC1` returned a viability index of 0.9717 ± 0.0072. `O=C(c1ccccc1)N1C[C@H]2[C@@H](c3ccccc31)[C@@H](CO)N2Cc1ccccn1` had a viability index of 0.9895 ± 0.0093. For the compound `COCC(=O)N1C[C@@H]2[C@H](c3ccccc31)[C@@H](CO)N2C(=O)c1ccccc1F`, the viability index is 1.044 ± 0.0014. In the case of `CO[C@@H]1CN(C)C(=O)c2cc(NC(=O)Cc3ccccc3)ccc2OC[C@H](C)N(C(=O)c2ccccc2F)C[C@H]1C` it was 1.06 ± 0.024; in that of `CO[C@H]1CN(C)C(=O)c2cc(NC(=O)c3ccc(F)cc3)ccc2OC[C@@H](C)N(C(=O)CC2CC2)C[C@@H]1C`, 1.13 ± 0.12; in that of `O=C(C[C@@H]1CC[C@H]2[C@@H](COC[C@@H](O)CN2CCc2ccccc2)O1)NCCCN1CCOCC1`, 1.06 ± 0.07. In the case of `C[C@H](CO)N1C[C@H](C)[C@@H](CN(C)Cc2ccc(Cl)c(Cl)c2)Oc2ccc(NC(=O)C3CCCCC3)cc2CC1=O` it was 0.963 ± 0.066; in that of `CCCNC(=O)N1C[C@]2(CN(CC3CCCCC3)C2)c2c([C@@H]1CO)n(C)c1cc(OC)ccc21`, 0.917 ± 0.037; in that of `C[C@@H]1CN([C@H](C)CO)C(=O)c2cc(NC(=O)C3CCCCC3)ccc2O[C@@H](C)CCCCO[C@@H]1CN(C)C(=O)CCC(F)(F)F`, 0.817 ± 0.26.

On to `O=C(C[C@@H]1C[C@H]2c3cc(NS(=O)(=O)c4ccc(F)cc4)ccc3O[C@H]2[C@H](CO)O1)NCCN1CCCCC1`, for which the viability index is 1.06 ± 0.028. On to `CO[C@@H](CN(C)S(=O)(=O)c1cccc(Cl)c1)[C@H](C)CN(C(=O)Nc1ccccc1F)[C@@H](C)CO`, for which the viability index came to 1.016 ± 0.01. For `O=C(C1CCOCC1)N1CC(=O)N2[C@H](CO)[C@H](c3ccc(C#CCc4ccccc4)cc3)[C@@H]2C1`, the viability index was 1.05 ± 0.075. As for `OC[C@H]1[C@@H](c2ccccc2)C2(CN(Cc3ccccc3F)C2)N1Cc1ccccc1F`, the viability index is 1.02 ± 0.018.

With `Cc1ccccc1S(=O)(=O)N1[C@H](C#N)[C@@H](c2ccccc2-c2cccc(F)c2)[C@@H]1CO`, the viability index turned out to be 1.111 ± 0.003.

Turning to `Cc1noc(C)c1NC(=O)Nc1ccc2c(c1)C(=O)N(C)[C@H]1CC[C@@H](CC(=O)N[C@H]3CCN(Cc4ccccc4)C3)O[C@H]1CO2`, the viability index stood at 1.18 ± 0.14. The value for `CCCNC(=O)N1CC(=O)N2[C@@H](CO)[C@@H](c3ccc(C#Cc4cccc(OC)c4)cc3)[C@@H]2C1` was 1.01 ± 0.064; that for `O=C(Nc1cc(F)ccc1F)N[C@@H]1CC[C@@H](CC(=O)N2CCc3ccccc3C2)O[C@H]1CO` was 1.05 ± 0.18. For `COc1ccc2c3c([C@H](CO)N(C[C@]33CN(C3)C(=O)c3ccccn3)S(=O)(=O)c3ccc(C)cc3)n(C)c2c1`, the viability index came to 0.992 ± 0.051. Compound `COCCNC(=O)C[C@H]1CC[C@H]2[C@@H](COC[C@H](O)CN2C(=O)c2cc(Cl)cc(Cl)c2)O1` gave a viability index of 1.05 ± 0.028. In the case of `COc1ccccc1NC(=O)N1CCCCN2[C@H](C1)[C@H](c1ccc(-c3cccc(C#N)c3)cc1)[C@@H]2CO` it was 1.03 ± 0.039; in that of `COc1cccc(S(=O)(=O)N2C[C@@H]3N[C@H](C2)[C@H]3c2ccc(-c3ccccc3F)cc2)c1`, 1.04 ± 0.02; in that of `COc1cccc(-c2ccc3c(c2)[C@H]2[C@H](CCN2C(=O)c2ccccc2F)[C@H](CO)N3C)c1`, 0.926 ± 0.04.

The values above are taken from the supplement of paper PMC4723716.
